Experimental findings from the BET-seq Pho4 binding data (Le et al. 2018) are described below.

This is one part of the list. The energies were worked out here from pooled read counts, against the library average; single values are noisy.

The test deals with T1, Pho4 (S. cerevisiae) (UniProt P07270).
T1 sequence: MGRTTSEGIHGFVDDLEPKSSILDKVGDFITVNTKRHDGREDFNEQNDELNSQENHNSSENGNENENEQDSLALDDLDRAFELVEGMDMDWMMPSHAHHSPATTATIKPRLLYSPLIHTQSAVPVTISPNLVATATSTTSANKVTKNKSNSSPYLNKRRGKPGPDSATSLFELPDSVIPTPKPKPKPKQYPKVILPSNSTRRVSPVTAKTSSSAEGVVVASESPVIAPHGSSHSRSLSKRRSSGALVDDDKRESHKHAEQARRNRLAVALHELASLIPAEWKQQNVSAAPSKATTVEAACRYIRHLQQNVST
In words: relative binding free energy (BET-seq); higher = weaker binding. The note with it: reference: library average.
GGTATCACGTGTGGAA: the “relative binding free energy” value stood at 0.18 kcal/mol.
For GGAGGCACGTGGGAGT, the “relative binding free energy” value is -0.13 kcal/mol.
As to TGGGGCACGTGGATTC, the “relative binding free energy” value was -0.03 kcal/mol.
In the case of AGTGACACGTGAAGTG it was 0.02 kcal/mol.
For the sequence GCAATCACGTGGAGGG, the “relative binding free energy” value came to 0.05 kcal/mol.
In the case of TATATCACGTGGTGCG it was -0.02 kcal/mol; in that of GGCGGCACGTGGTTAA, -0.09 kcal/mol.
Regarding AGATGCACGTGTACGG, the “relative binding free energy” value is -0.04 kcal/mol.
In the case of AATATCACGTGTGGTA, the “relative binding free energy” value was 0.08 kcal/mol.
For GTTATCACGTGGGGAT, the “relative binding free energy” value was found to be 0.11 kcal/mol.
In the case of AGTGGCACGTGAAGGG, the “relative binding free energy” value amounted to 0.14 kcal/mol.
Take CGGAACACGTGTAGGG: the “relative binding free energy” value came out at 0.02 kcal/mol.
As to TGAGTCACGTGGGAGA, the “relative binding free energy” value was determined as 0.15 kcal/mol.
As for AATGTCACGTGGGGCC, the figure is -0.03 kcal/mol.
As for TTAAGCACGTGATTGT, the figure is -0.01 kcal/mol; as for GAGGACACGTGCGGAG, 0.1 kcal/mol; as for GGAATCACGTGTTGTA, 0.23 kcal/mol.
For GGTTACACGTGTACGA, the “relative binding free energy” value stood at 0.21 kcal/mol.
In the case of ACTGTCACGTGTATGA it was 0.19 kcal/mol; in that of ATGATCACGTGTCTGG, 0.05 kcal/mol.
Take TTAGGCACGTGGTCTT: the “relative binding free energy” value is -0.03 kcal/mol.
As for TTTACCACGTGTGCGG, the figure is 0.03 kcal/mol.
TGTTTCACGTGATTAG: the “relative binding free energy” value was 0.37 kcal/mol.
For the sequence GAAATCACGTGGTTGT, the “relative binding free energy” value amounted to 0.27 kcal/mol.
As for AAGGTCACGTGAGGTG, the figure is 0.36 kcal/mol.
In the case of AAGTGCACGTGTCTGT it was -0.12 kcal/mol; in that of AGGGCCACGTGGTGCG, -0.2 kcal/mol.
In the case of GGTGTCACGTGGATAC it was 0.26 kcal/mol.
Turning to TGAGTCACGTGGGCTG, the “relative binding free energy” value amounted to 0.06 kcal/mol.
In the case of AGCGGCACGTGTAGTT, the “relative binding free energy” value stood at 0.01 kcal/mol.
Regarding ACGTGCACGTGATGGT, the “relative binding free energy” value was -0.12 kcal/mol.
Take ATTATCACGTGCTGTT: the “relative binding free energy” value was -0.03 kcal/mol.
In the case of TATTACACGTGAGGGG, the “relative binding free energy” value is 0.33 kcal/mol.
As for CATTTCACGTGATATT, the figure is 0.25 kcal/mol; as for TTGAGCACGTGTGGGG, -0.07 kcal/mol.
In the case of TTTGGCACGTGGTCCG it was -0.24 kcal/mol; in that of CTAATCACGTGTGGGC, 0.33 kcal/mol; in that of GGGGACACGTGATTTG, 0.26 kcal/mol.
As for TGACTCACGTGAGGTT, the “relative binding free energy” value came out at 0.39 kcal/mol.
TTTTTCACGTGTAAGG: the “relative binding free energy” value was determined as 0.3 kcal/mol.
Consider AGTGTCACGTGCTGCT, for which the “relative binding free energy” value came out at 0.1 kcal/mol.
As for TTATGCACGTGTCTTG, the “relative binding free energy” value is -0.1 kcal/mol.
For the sequence GGTAACACGTGTGGGT, the “relative binding free energy” value worked out at 0.04 kcal/mol.
As for AGGGACACGTGTGGAT, the figure is -0.03 kcal/mol; as for TGTGACACGTGGGTCG, -0.22 kcal/mol; as for TTGGCCACGTGCGGTA, -0.22 kcal/mol.
As for CAGAACACGTGTTGGT, the figure is -0.03 kcal/mol; as for GTTGTCACGTGGGTGA, 0.04 kcal/mol; as for TGAAGCACGTGCTAGG, -0.23 kcal/mol.
In the case of TGGAGCACGTGTAAGA it was 0.04 kcal/mol; in that of GATTGCACGTGTCGGA, 0.17 kcal/mol; in that of GTTTGCACGTGATTAG, 0.23 kcal/mol.
On to GTGCACACGTGCGTGG, for which the “relative binding free energy” value is -0.15 kcal/mol.
In the case of TAGGTCACGTGATTGC, the “relative binding free energy” value was 0.06 kcal/mol.
For GTGTACACGTGGTAAT, the “relative binding free energy” value worked out at 0.05 kcal/mol.
As for AATTGCACGTGCGGTT, the figure is 0.06 kcal/mol.
As for GGTTTCACGTGTGATA, the figure is 0.21 kcal/mol.
In the case of TGAAGCACGTGTAGGA, the “relative binding free energy” value is 0.01 kcal/mol.
As to TGAACCACGTGTGTAT, the “relative binding free energy” value worked out at 0.16 kcal/mol.
Take TTGGTCACGTGGGAGC: the “relative binding free energy” value is -0.02 kcal/mol.
As for GGTAACACGTGGGAAT, the figure is 0.14 kcal/mol; as for CGTTGCACGTGAGCGG, 0.18 kcal/mol; as for CCGGTCACGTGTTGGT, 0.14 kcal/mol.
As for TACGTCACGTGGGATA, the figure is 0.11 kcal/mol; as for TCTCGCACGTGTGTGT, -0.07 kcal/mol.
Turning to TTGGGCACGTGAGCGT, the “relative binding free energy” value amounted to 0.15 kcal/mol.
As for TAATGCACGTGAAGTG, the figure is 0.25 kcal/mol; as for TGCGACACGTGGTAAG, 0.03 kcal/mol; as for GATGGCACGTGTTGTT, 0.08 kcal/mol.
As for GAGATCACGTGTTGAG, the figure is 0.21 kcal/mol.
In the case of CTATTCACGTGGTCGG it was 0.18 kcal/mol; in that of GAATTCACGTGGAGGT, 0.32 kcal/mol.
On to AATTACACGTGAAGGT, for which the “relative binding free energy” value turned out to be 0.29 kcal/mol.
In the case of AAAGTCACGTGATGAG it was 0.21 kcal/mol; in that of GATGGCACGTGATCGG, -0.09 kcal/mol.
As for GTTCGCACGTGTATGA, the figure is 0.04 kcal/mol.
In the case of TAGCTCACGTGGCGTT it was 0.24 kcal/mol; in that of ATTAACACGTGTCGTT, 0.1 kcal/mol.
Take GTATTCACGTGGCCTT: the “relative binding free energy” value came out at 0.2 kcal/mol.
In the case of GTGATCACGTGTATAT it was 0.2 kcal/mol; in that of CTGTTCACGTGGAGGG, 0.35 kcal/mol.
For the sequence CGTTACACGTGATTGT, the “relative binding free energy” value is 0.27 kcal/mol.
CTAGGCACGTGAAGGG: the “relative binding free energy” value is 0.11 kcal/mol.
As to TGTATCACGTGATATA, the “relative binding free energy” value was determined as 0.15 kcal/mol.
As for CTGGGCACGTGAGTTA, the figure is 0.11 kcal/mol.
In the case of AGGTACACGTGCGTGG it was 0.03 kcal/mol; in that of TTTATCACGTGCGGTT, 0.03 kcal/mol.
Take ATTTACACGTGGTCTG: the “relative binding free energy” value was -0.02 kcal/mol.
As for CATAGCACGTGGGGAT, the figure is -0.17 kcal/mol.
In the case of AGAGGCACGTGGAGTC it was 0.04 kcal/mol; in that of AAGGCCACGTGGTGGT, -0.08 kcal/mol.
In the case of GTGTGCACGTGTGGCT it was 0.13 kcal/mol; in that of GGGAACACGTGTGGAA, 0.22 kcal/mol.
GCCGGCACGTGGTGGC: the “relative binding free energy” value is -0.11 kcal/mol.
For the sequence CGTAACACGTGTATGG, the “relative binding free energy” value was 0 kcal/mol.
As for GTTGACACGTGTGCGG, the figure is 0.06 kcal/mol; as for AGAGGCACGTGTTCTT, -0.11 kcal/mol; as for TTAGTCACGTGAGGCG, 0.1 kcal/mol.
In the case of ATGATCACGTGGTTGG it was 0.14 kcal/mol.
As for TAACTCACGTGGTTTG, the figure is 0.18 kcal/mol; as for GGAAGCACGTGGGGCA, -0.19 kcal/mol.
Regarding TAGTGCACGTGGTATT, the “relative binding free energy” value was -0.11 kcal/mol.
As to AATTACACGTGTTTGG, the “relative binding free energy” value was determined as 0.14 kcal/mol.
ATTTTCACGTGGAGCT: the “relative binding free energy” value amounted to 0.28 kcal/mol.
As for TTAAGCACGTGTGGCA, the figure is 0.06 kcal/mol; as for ATATTCACGTGGCATG, 0.15 kcal/mol; as for AGGTTCACGTGAGCAT, 0.47 kcal/mol.
As for AATGTCACGTGTATAG, the figure is 0.04 kcal/mol; as for ATAAGCACGTGTGATG, 0.04 kcal/mol.
In the case of TCTCGCACGTGAGGTG it was 0.26 kcal/mol.
For the sequence AGAAGCACGTGTTAGG, the “relative binding free energy” value came to 0.02 kcal/mol.
As to TTTCACACGTGAGTTT, the “relative binding free energy” value came out at 0.28 kcal/mol.
Take AATGTCACGTGCAGGT: the “relative binding free energy” value is -0.09 kcal/mol.
For the sequence ATGGTCACGTGTTAGT, the “relative binding free energy” value turned out to be 0.09 kcal/mol.
As for AGTGACACGTGGGTGG, the figure is -0.14 kcal/mol.
